This note sets out measurements from the RNAGym collection of RNA variant scans (doi:10.7554/elife.90254).

Read counts are not given, so values of variants with three or more changes are uncertain.

Sequences and labels used below:
B1: LINE1-full (parent)
chain: UACGUAGGUGGUUUUCCCCUGAUAGUGCUAAGGGGGCCUGGAAGUUUGGACUGGGCAGAGCUCAACACAGCGUGGCAAAGUGGCUGUGGCUAGACUGCCUCUCUGGAUUCCUCGUCACUCAGCAGGGCAUCUCUGAGAGAAAUGCC

In this data set the parent is B1. Briefly: self-cleavage, relative activity (ratio to wild type); higher = more cleavage; in vitro, sequencing; the parent is a self-cleaving ribozyme.
In the case of UACGUAGGUGGUUUUCCCCUGAUAGUGCUAAGGGGGCCUGGAAGUUUGGACUAGGCAGAGCUCAACACAGCGUGGCAAAGUGGCUGUGGCUAGACUGCCUCUCUGGAUUCCUCGUCACUCAGCAGGGCAUCUCUGAGAGGAAUACC [G53A A140G G144A], the self-cleavage was 1.24.
Under UACGUAGGUGGUUUUCCCCUGAUAGUGCUAAGGGGGCCUGGAAGUUUGGACUGGGCAGAGCUCAGCACAGCGAGGCAGAGUGGCUGUGGCUAGACUGCCUCUCUGGAUUCCCCGUCACUCAGCAGGGCAUCUCUGAGAGAAUUGCC [A65G U73A A78G U112C A142U] stands 0.
On to UACGUAGGUGGUUUUCCCCUGAUAGUGCUAAGGGGGCCUGGAAGUUUGGACUGGGCAGAGCUCAACACAGCGUGGCUAAGUGGCUGUGGCUAGACUGCCUCUCUGGGUUCCUCGUCACUCAACAGGGCAUCUCUGAGAGAAAUGCC [A77U A107G G122A], for which the self-cleavage came out at 2.05.
With UACGUAGGUGGUUUUCCCCUGAUAGUGCUAAGGGGGCCUGGAAGUUUGGACUGGGCAGAGCUCAACACAGCGUGGCAAGGUGGCUGUGGCUAGACUGCCUCUCUGGAUUCCUCGUCACUCAGCAGGGCAUCUCCGAGAGGAAUGCC [A79G U134C A140G], the self-cleavage amounted to 1.53.
Take UACGUAGGUGGUUUUCCCCUGAUAGUGCUAAGGGGGCCUGGAAGUUUGGACUGGGCAGAGCUCAACACGGCGUGGCAAAGUGGCUGUGGCUAGACUGCCUCUCUGGAUCCCUAGUCACUCAGCAGGGCAUCUCUGUGAGAAAUGCC [A69G U109C C113A A136U]: the self-cleavage came to 0.12.
For the variant UACAUAGGCGGCUUUCCCCUGAUAGUGCUAUGGGGGCCUGGAAGUUUGGACUGGGCAGAGCUCAACACAGAGUGGCAAGGUGGCUGUGGCUAGACUGCCUCUCUGGAUUCCUCGACACUCAGCAGGGCUUCUCUGAGAGAAAUGCC [G4A U9C U12C A31U C71A A79G U115A A129U], the self-cleavage stood at 0.37.
Under UACGUAGGUGGUCUUCCCCUGAUGGUGCUAAGGGGGCCUGGAAGUUUGGACUGGGCAGAGCUCUACACAGCGUGGCAAAGUGGCUGUGGCUAGACUGCCUCUCUGGAUUCCUCGUCACUCAGCAGGGCAUCUCUGAGAGAGAUGCC [U13C A24G A64U A141G] stands 0.71; under UACGUCGGUGGAUUUCCCCUGAUAAUGCUAAGGGGGCCUGGAAGUUUGGACUGGGCAGAGCUCAACACAGCGUGGCAAAGUGGCUGUGGCUAGACAGCCUCUCUGGAUUCCUCGUCUCUCAGCAGGGCAUCUCUGAGAGAAAUGCC [A6C U12A G25A U96A A117U], 0.
On to UACGUAGGAGGUUUUCCCCUGAUAGUGCUAAGGGGGCCUGGAAGUUUGGACUGGGCAGAGCUCGACACAGCGUGGCAAAGUGGCCGUGGCUAGACUGCCUCUCUGGAUUCCUCAUCACUCAGCAGGGCAUCUCUGAGAGAAAUGCC [U9A A64G U85C G114A], for which the self-cleavage amounted to 0.19.
Regarding UACGUAGGUGGUUUUCCCCUGAUAGUGCCAAGGGGGCCUGGAAGUUUGGACUGGGCAGAGCUCAGCACAGCGUGGCAAAGUGGCUGUGGCUAGACUGCCUCUCUGGAUUCCUCGCCACUCAGCAGGGCAUCUCUGGGAGAAAUGCC [U29C A65G U115C A136G], the self-cleavage is 0.
Regarding UACGUAGGUGGGUUUCCCCUGAUAGUGCUAAGGGGGCCUGGAAGCUUGGACUGGGCAGAGCUCAACACAGCGUGGCAAAGUGGCUGUGGCUAGACUGCCUCUCUGGAUUCCACGUCACUCAGCAGGGCAUCUCUGAGAGAAAUGCC [U12G U45C U112A], the self-cleavage was found to be 0.78.
For UACGUAGGUGGUUUUCCCCUGAUAGUGCUAAGGGGGCCUGGAAGUUUGGACUGGGCAGAGCUCAACACAGCGUGGCGAAGUGGCUGUGGCUAGACUGCCUCUCUGGAUUCCCCGUCACUCAGUAGGGCAUCUCUGAGAGAAAUGCC [A77G U112C C123U], the self-cleavage came to 2.31.
Under UACGUAGGUGGUAUUCCCCUGAUAGUGCUAAGGGGGCCUGGAAGUUUGGACUGGGCAGAGCUCGACUCAGCGUGGCAAAGUGGCUGUGGCUAGACUGCCUCUCUGGAUUCCUCGUCACUCAGCAGGGCAUCUCUGAGAGAAAUGCC [U13A A64G A67U] stands 0.12.
UACGUGGGCGGGUUUCCCCUGAUAGUGCUAAGGGGGCCUGGAAGUUUGGGCUGGGCAGAGCUCAACACAGCGUGGCAAAGUGGCUGUGGCUAGACAGCCUCUCUGGAUUCCUCGUCACUCAGCAGGGCAUCUCUGAGAGAGAUGCC [A6G U9C U12G A50G U96A A141G]: the self-cleavage is 0.54.
Then UACGUAGGUGGUUUUCCCCAGAUAGUGCUAAGGGGGCCUGGAAGUCUGGACUGGGCAGAGCUCAACACAGCGUGGCAAAGUGGCUGCGGCUAGACUGCCUCUCUGGAUUCCUCGUCACUCUGCAGAGCAUCUCUGAGAGAAAUGCC [U20A U46C U87C A121U G126A], with 0.39; and UACGUAGGAGGUUUUCCCCUGAUAGUGCUAAGGGGGCCUGGAAGUUUGGACUGGGCAGAGCUCAACACUGCGUGGCAAAGUGGCUGUGGCUAGACAGCCUCUCUGGAUUCCUCGUCACUCAGCAGGGCAUCUCUGAGAGAAAUGCC [U9A A69U U96A], with 0.03.
In the case of UACGUAGGUGGUUUCCCCCUGAUAGUGCUAAGGGGGCCUGGAAGUUUGGACUGGGCAGAGCUCAACACAGCGUGGUAAAGUGGCUGUGGCUAGACUGCCUCUCUGGAUUCCCCGUCACUCAGCAGGGCAUCUCUGAGAGAUAUGCC [U15C C76U U112C A141U], the self-cleavage was found to be 2.12.
As for UACGUAGGUGGUUCUCCCCUGAUAGUGCUAAGGGGGCCUGGAAGUUUGGACUGGGCAGAGCUCAACACAGCGUGGCAAAGUGGCUGUGGCUAGACAGCCUCUCUGGAUCCCUCGUCACUCAGCAGGGCAUCUCUGAGAGAAAUGCC [U14C U96A U109C], the self-cleavage was determined as 0.45.
UACGUAGGUGGUUUUCCCCUGAUAGUGCUAAGGGGGCCUGGAAGUUUGGACUGGGCAGAGCUCAACACAGCGUGGCAAAGUGGCUGUGGCUAGACUGCCUCUCUGGAUUCCUCGUCGCUCAGCAGGGCAUCUUUGAGGGAAAUGCC [A117G C133U A138G]: the self-cleavage stood at 1.37.
Regarding UACGUAGGUGGUUUUCCCCUGAUAGUGCUAAGGGGGCCUGGAAGUUCGGACUGGGCAGAGCUCAACACAGCGUGGCAAAGUGGCUGAGGCUAGACUGCCCCUCUGGAUUCCUCGUCACUCAGCAGGGCAUCUCUGAGAGAAAUGCC [U47C U87A U100C], the self-cleavage is 0.15.
For UACGUAGGUGGUUUUCCCCUGAUAGUGCUAAGGGGGCCCGGAAGUUUGGACUGGGCAGAGCCCAACACAGCGUGGCAAAGUGGCUGUGGCUAGACUGCCUCUCUGGAUUCCUCGUCACUCAGCAGGGCAUCUCCGAGAGAAAUGCC [U39C U62C U134C], the self-cleavage was found to be 0.11.
In the case of UACGUAGGUGGUUUUCCCCUGAUAGUGCUAAGGGGGCCUGGAAGUUUGAACUGGGCAGAGCUCAACACAGCGUGGCAAAGUGGCUGUGGCUAGACUGCCUCUCUGGAUUCCUCGUCGCUCAGCAGGGCAUCUCUGAGAGAAACGCC [G49A A117G U143C], the self-cleavage came to 1.31.
In the case of UACGCAGGUGGUUUUCCCCUGAUAGUGCUAAGGGGGCCUGGAAGUUUGGACUGGGCAGAGCUCAACACAGCGUGGCAAAGUGGCUGAGGCUAGACUGCCUCUCUGGACUCCUCGUCACUCAGCAGGGCAUCUCUGAGAGAAAUGCC [U5C U87A U108C], the self-cleavage turned out to be 0.05.
With UACGUAGGUGGUUUUCCCCUGAUAGUGCCAAGGGGGCCUGGAAGUUUGGACUGGGCAGAGCUAAACACAGCGUGGCAAAGUGGCUGCGGCUAGACUGCCUCUCUGGAUUCCUCGUCACUCAGCAGGGCAUCUCUGAGAGAAAUGCC [U29C C63A U87C], the self-cleavage amounted to 0.
Consider UACGUAGGGGGUUUUCCCCUGAUAGUGCUAAGGGGGCCUGGAAGUUUGGACUGGGCAGAGCUCAGCACAGCGUGGCAAAGUGGCUGUGGCUAGACUGCCUCUCUGGACUCCUCGUCACUCAGCAGGGCAUCUCUGAGAGAAAUGCC [U9G A65G U108C], for which the self-cleavage was 0.26.
Take UACGUAGGUGGUUUUCCCCUGAUAGUGCUAAGGGGGCCUGGAAGUUUGGACUGGGCAGAGCUCAACACGGCGUGGCAAAGUGGCUGUGGCUUGACCGCCUCUCUGGAUUCCUCGUCACUCAGCAGGGCAUCUCUGAGAGAAAUGCC [A69G A92U U96C]: the self-cleavage amounted to 0.
As to UACGUAGGUGGUUUUCCCCUGAUAGUGCUAAGGGGGCCUGGAAGUUUGGACUGGGCAGAGCUCAACUCAGCGUGGCAAAGUGGCUGUGGCUAGACUGCCUCUCUGGGUUCCUCGUCACUCAGCAGGGCAUCUCUGAGAGGAAUGCC [A67U A107G A140G], the self-cleavage was 0.1.
In the case of UACGUAGGUGGUUUUCCCCUGAUUGUGCUAAGGGGGCCUGGAAGUUUGGGCUGGGCAGAGCUCAACACAACGUGGCAAAGUGGCUGUGGCUAGACUGCCUCUCUGGAUUCCUCGUCACCCAGCAGGGCAUCUCUGAGAGAAAUGCC [A24U A50G G70A U119C], the self-cleavage stood at 0.15.
Regarding UACGUAGGUGGUUUUCCCCUGAUAGUGCUAAGGGGGCCAGGAAGUUUGGACUGGGCAGAGCUCAACACAGCGUGGCAAAGUGGCUGUGGCUAGACUGCCUCUCUGGAUUCCUCGUCACUCAGCGAGGCAUCUCUGAGAGAAAUGCC [U39A A124G G125A], the self-cleavage stood at 0.48.
Take UACGUAGGUGGUCUUCCCCUGAUAGUGCUAAGGGGGCCUGGAAGUUUGGACUGGGCAGAGCUCAACACAGCGUGGCAAAGUGGCUGCGGCUAGACUGCCUCUCUGGAUUCCUCGUCACUCAGCAGGGCAUCUCGGAGCGAAAUGUC [U13C U87C U134G A138C C145U]: the self-cleavage stood at 0.
Under UACGUAGGUGGUUUUCCCCUGGUAGUGCUAAGGGGGCCAGGAAGAUUGAACUGGGCAGAGCUCAACACAGCGUGGCAAAGUGGCUGUGGCUAGACCGCCUCUCUGGAUUCCUCGUCACUCAGCAGGGCAUCUCUGAGAGAAAUGCC [A22G U39A U45A G49A U96C] stands 0.08; under UACGUAGGUGGUUUUCCCCUGAUAGUGCUAAGGGGGCCUGGAAGUUCGGACUGGGCGGAGCUCAACACAGCGUGGCAAAGUGGCUGUGGCUAGACUGCCUCUCUGGAUUCCUCGUCACUCAGCAGGGCAUCUCUGAGAGAUAUGCC [U47C A57G A141U], 2.52; under UACGUAGGUGGUUUUCCCCUGGUAGUGCUAAGGGGGCCUGGAAGUUUGGACUGGGCAGAGCUCAACACAGCGUGGCAAAGUGGCUGUGGCUAGACCGCCUCUCUGGAUUCCUCGUCACUCAGCAGGGCAUCUCCGAGAGAAAUGCC [A22G U96C U134C], 0.13.
In the case of UACGUAGGUGGUUUUCCCCUGAUAGUGCUAAGGGGGCCUGGAAGUUUGGACAGGGCAGUGCUCAACACAGCGUGGCAAAGUGGCUGCGGCUAGACUGCCUCUCUGGAUUCCGCGUCACUCAGCAGGGCAUCUCUGAGAGAAAUGCC [U52A A59U U87C U112G], the self-cleavage was 0.24.
Under UACGUAGGUGGUUUUCCCCUGAUAGUGCUAAGGGGGCCUGGAAGUAUGGACUGGGCAGAGCUCAACACAGCGUGGCAAAGUGGCUGUGGCUAGACUGCCUCUCUGGAUUCCUCGUUACUCAGCAGGGCAUCUCUGAGAGAGAUGCC [U46A C116U A141G] stands 1.52.
In the case of UACGUAGGUGGUUUUCCCCAGAUAGUGCUAAGGGGGCCCGGAAGUUUGGACUGGGCAGAGCUCAGCACAGCGUGGCAAAGUGGCUGUUGCUAGACUGCCUCUCUGGAUUCCUCGUCACUCAGCAGGGCAUCUCUGAGAGAAAUGCC [U20A U39C A65G G88U], the self-cleavage stood at 0.05.
UACGUAGAUGGUUUUCCCCUGAUAGUGCUAAGGGGGCCUGGAAGUUUGGACUGGGCAGAGCUAAACACAGCGUGGCUAAGUGGCUGUGGCUAGACUGCCUCUCUGGAUUCCUCGUCACUCAGCAGGGCAUCUCUGAGAGAAAUGCC [G8A C63A A77U]: the self-cleavage turned out to be 0.03.
As to UACGCAGGUGGUUUUCCCCUGAUAGUGCUAAGGGGGCCUGGAAGUUUGGACUGGGCAGAGCUCAACACAGCAUGGCAAAGUGGCUGUGGCUAGACUGCCUCUCUGGAUUCCUCGUCACACAGCAGGGCAUCUCUGAGAGAAAUGCC [U5C G72A U119A], the self-cleavage came to 1.34.
Turning to UACGUAGGUGGUUAUCCCCUGACAGUGCUAAGGGGGCCUGGAAGUUUGGACUGGGCAGAGCUCAACACAGCGUGGCAAAGUGGCUGUGGCUAGACUGCCUCCCUGGAUUCCUCGUCACUCAGCAGGGCAUCUCUGAGAGAAAUGCC [U14A U23C U102C], the self-cleavage came out at 0.39.
